Laboratory results published in the supplement of paper PMC11417369.
± gives the standard deviation of the averaged measurements. The list shows a part of the results.

Each sequence was assayed on PfAP2-LT AP2 domain (GST-tagged) (assay: gcPBM binding intensity (ln(normalized median fluorescence intensity)); higher = stronger DNA binding).
How it was run: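 Alexa488 anti-GST antibody, scanned at 488 nm, detected GST-tagged P. falciparum DNA-binding domains that had been expressed in E. coli and incubated for 1 h on an Agilent 4 × 180k array. The array carried primer-extended double-stranded 36-bp intergenic genomic probes and negative controls. Binding intensity is the highest Masliner-normalised natural-log median intensity across replicate spots of either orientation of each probe.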

Sequence	gcPBM binding intensity (ln)
AAAAAAAAAAAAAAAAATATATTTATGAAATAAAAA [TGCATGCA_negctrl_site262]	8.18 ± 0.57
TATTTTTTTTTTTTTTTTTTTTTTATATATACATAT [CACACA_negctrl_site23]	8.61 ± 0.52
CACAAAATAAATTAAACACACAACATCATATATGTA [CACACA_site846]	9.12 ± 0.4
GAAGAAGTTTAAAAAGCACACAAAAAAAAAAAAAAA [CACACA_site9088]	8.63 ± 0.46
TAAATTATTATCCCCTCACACACAAAAATAAAAAGA [CACACA_site2886]	9.35 ± 0.16
TATTTATAAACATACGCACACATTAATATATATATA [CACACA_site9314]	9.02 ± 0.35
AGATATTCTACTATGTGTACATATATATATATAATT [XGTACX_site5060]	9.02 ± 0.33
ATTATTATTAATCTTGTGCACATATATTTTAATTAG	8.91 ± 0.46
CTTGTAGATATAAAATGTACAAAAATAAATTGCACA [XGTACX_site4409]	8.68 ± 0.38
TTACTCATGAAAGATACACACATTCGTTATTTATAT [CACACA_site7517]	8.95 ± 0.38
TATACATGTATATATTGTACATATGTTTTTTTTACA [XGTACX_site3300]	8.87 ± 0.44
TTTTTTCAAATTTTCTTTTTTCTTTTGTTTTTTTTG [CACACA_negctrl_site380]	8.3 ± 0.78
TTTTTATAATGATACATATATTATTTTATTCTTAAT [CACACA_negctrl_site124]	8.44 ± 0.58
ACATTAAGACACATTGCACACGTGCACCCATAGAAA [CACACA_site8029]	9.16 ± 0.38
ACCTGGACAAAAATAAATAAATAAATAAATAAATGA [GTGCAC_negctrl_site238]	8.68 ± 0.6
TTTATATATTATTAATGTACAAAATTTTTATTGCAT [XGTACX_site3329]	8.52 ± 0.48
TAAATACAGAAACACACACACAAATATATACATACA [CACACA_site2880]	9.88 ± 0.13
AATTCTTTTTTCAACACACACACACTAGAAAATATA [CACACA_site5681]	9.46 ± 0.2
AAAAAAAAAAAAAACACACACAACACCCATACCTTA [CACACA_site3621]	9.79 ± 0.057
CTTTTAATATGTGTAGTGCATTTTTTTTTTTTTTTT [GTGCAC_site9727]	8.62 ± 0.51
GTCCTTCATCATATTTAACACACAGAGAAAAAGCGG [CACACA_site7979]	8.91 ± 0.3
TTTTTTTTTTTTTTGGTGCGTTTATATATAAATATA	8.62 ± 0.38

Sequence	gcPBM binding intensity (ln)
GGAATTATATGAAATAAACACACATATGTAATATTA [CACACA_site8586]	8.97 ± 0.38
TACATCGACCTATGTACATGCAAATTATTTTTATTT [TGCATGCA_site182]	8.91 ± 0.42
AAAATCTAATATAATGCACACATAAAAAAAAAATCA [CACACA_site8871]	8.96 ± 0.38
ATTTTTTTGTGTTTGGTACACACGTTATAAAAAATA [CACACA_site1345]	8.74 ± 0.41
TTGGTAATAATTTGAGGTACACTGTATAAATTTTTT [XGTACX_site909]	8.52 ± 0.46
TTTTTTTCTTAAAGATGTACTTTTTTAAAATAATCT [XGTACX_site3663]	8.2 ± 0.58
AATAATAAATTATGGTGTACGCATTTGTATATATAC [XGTACX_site5417]	9.01 ± 0.4
TAAAAGAAATATACATGTACATAAATATATATATAT [XGTACX_site1276]	9.09 ± 0.35
TATATTTGGAAATATTCTCAATTGGTACAAATAAAA [CACACA_negctrl_site1202]	8.38 ± 0.45
GCCCAACCAAAATATACACACAGTTGAATGAATAAA [CACACA_site2597]	9.06 ± 0.47
GATATGTGACGTTTGGTATTTTTGATGTTGGTAGGA [CACACA_negctrl_site1448]	8.87 ± 0.4
GGAAAATACATTCCAGTGCATTAATTTATTCAACGT	8.82 ± 0.41
AAAAAAATAAAATTATATAAAATAAATTTTTATAAT [GTGCAC_negctrl_site587]	8.29 ± 0.42
TTTTGGATCATTTGTTGTACATATGCAAAAAAAAAA [XGTACX_site3157]	8.33 ± 0.34
TATGATACATAATATACATGCATACACAACATTCAG [TGCATGCA_site487]	8.94 ± 0.37
TTTTTTAAAAAAGTTTTCTGTATTTATATATATATA [CACACA_negctrl_site31]	8.31 ± 0.39
TTAACCTTTTGATATTGTACCCATAATCTAATACAA [XGTACX_site769]	8.55 ± 0.46
TCATATGTATAAATTAGTACATATTTAATGGATATA [XGTACX_site3298]	8.59 ± 0.3
CTATCTACATAAACGTGTACCCACAAATAAATAAAT [XGTACX_site5210]	8.82 ± 0.37
AGGCACGTGTTATATACACACATAATCAAATAAACT [CACACA_site7852]	9.36 ± 0.38
TTATGTCATAAATGCACACATATATATATACATATA [CACACA_site1588]	8.95 ± 0.33
AAAATAATAACATTGTGTACATAAAAAGAAAACCTT [XGTACX_site840]	8.95 ± 0.46

Sequence	gcPBM binding intensity (ln)
ACATTTTATACGATAAAATGTATAAGATTATGAAGA [TGCATGCA_negctrl_site476]	8.72 ± 0.44
TATGAATGGTTAAGTACACACATATTAATATATGTA [CACACA_site3490]	8.93 ± 0.38
AAATGAAAATAAAGCAACAGAAATATAATGTATTAT [GTGCAC_negctrl_site508]	8.94 ± 0.52
TTTTTTTACAACATTACACACAAATATTCTGTGTTA [CACACA_site5957]	9.14 ± 0.42
ATATTACAACATTTTATACACACGTGATTATTAATT [CACACA_site2877]	9.04 ± 0.45
AACAAAAATAATAATCAAATAAATAAATGAAAACAT [CACACA_negctrl_site456]	8.95 ± 0.54
AATCGTGTTCTGAATACACACTAATACAAATTTGTA [CACACA_site6058]	8.91 ± 0.26
AGAAAATTAAAAAGAACACACAAATATATATATAAT [CACACA_site5896]	9.11 ± 0.5
AACATTTTAAAACAGACACACACCAAAAAAAAAAAA [CACACA_site257]	9.21 ± 0.38
CACCCATAAATATACACACGCACAACACAAAATAAA [CACACA_site2903]	9.63 ± 0.41
ATATATATATATACATGTACAAATGTATAACAAATG [XGTACX_site145]	9.16 ± 0.3
TGGTACCTTACTTTTACACACTTTTTTTTTTTTTTT [CACACA_site1557]	8.96 ± 0.46
TTTTGAGTAGCCTATTGTACGAACTTTTTAAATACA [XGTACX_site1224]	8.51 ± 0.52
AATATATACGCATGCGCACACACAAGTGGGAAATTT [CACACA_site1786]	9.64 ± 0.32
CCATTTTAAATATGCACACAGATGCACTAACACATT [CACACA_site5099]	9.25 ± 0.34
CATCCTATTACTTGGTGTACTATTTTATATTGAATA [XGTACX_site1050]	8.95 ± 0.48
ATAAATTTATCCAAGTGTACAAAGCTAACATTTTTT [XGTACX_site4399]	8.71 ± 0.37
GTTTATAAAATAAGAAGTACTTTATGAGAACCATAT [XGTACX_site5789]	8.63 ± 0.44
AAAAATGGAATTATCTGTACATATATAGTTTTTAAA [XGTACX_site5580]	8.44 ± 0.45
ATAAACAAGACGCAACAAAGTAGAAATTAAAAATAA [CACACA_negctrl_site345]	9.06 ± 0.54
TTAAAGATATACAAAAGTACTTTTTTTTTCGTCATT [XGTACX_site384]	8.55 ± 0.47
TTCATTAAATAGAACAAAATAATAATATAACAACAA [GTGCAC_negctrl_site116]	8.7 ± 0.51

Sequence	gcPBM binding intensity (ln)
CCATATCTTTTTTGCACACACTACAATAAAACAAAA [CACACA_site4995]	9.07 ± 0.25
GGTTCATATATTAACACACACATACATATTATATAT [CACACA_site2937]	9.46 ± 0.34
TGAGAGAGAAACGTAGTGCATAAAATCAAATTTAGA [GTGCAC_site9737]	8.94 ± 0.55
AATAATCATAGTTCTACACACCTATATTGCAAAAAA [CACACA_site867]	8.8 ± 0.35
TACAAAAATAAATGTTGTACTATTATTTATTTCGAT [XGTACX_site1048]	8.56 ± 0.49
TAATATGTATTTACAAGTACTAACAAAATATTAAAA [XGTACX_site3379]	8.51 ± 0.49
TTATAAAAAATTTTAGTGCATATATGATTTATATAT [GTGCAC_site9831]	8.44 ± 0.39
TATATAGCATATTTCACACACACATAATGAATATTA [CACACA_site3546]	9.41 ± 0.34
ATGATATACGTAAACACACAAATAAAAAAAATTTAT [CACACA_site7544]	8.96 ± 0.52
TTTTTTAGTTTTTAGTGTACATAAATAAATAAATAA [XGTACX_site2843]	8.11 ± 0.45
TTAAAAAGAAAGTTCACACACATATAGATGACGGAA [CACACA_site7268]	9.19 ± 0.44
TGATACTTATGATAAATACACACTTGAAATTAAGGA [CACACA_site1152]	8.76 ± 0.34
TATATTACAAAAAGTACACACATAAATAAATACATA [CACACA_site975]	9.19 ± 0.46
ATGCTCAAAAGATATGCATGTACAAATATATGAAAT [TGCATGCA_site592]	8.99 ± 0.38
TATCAAATGTATATATGTACTTATATTTTTTTTATA [XGTACX_site1501]	8.56 ± 0.55
AAATTAAAATAATAATTCTACAAATTAATTTATCAT [XGTACX_negctrl_site44]	8.3 ± 0.51
AATATATTTTCCTGCAAACACACATATAAATGTGTA [CACACA_site532]	8.84 ± 0.38
TTTCTTTTTTTTTTTGTATATTAAATCTAAAAAGGA [TGCATGCA_negctrl_site431]	8.02 ± 0.33
ACTTCAAAAATAAACTGTACGTAAAAAAAAAAAAAA [XGTACX_site795]	8.66 ± 0.39
TTTAAATAAAATATTACACACTTAGAAAAATATATA [CACACA_site3663]	8.47 ± 0.44
TTTCGTAAAATGAAATGTACTCAAAAGTAAATATAA [XGTACX_site214]	8.62 ± 0.47
GATATAATGTGTTTGGTATTCTTGATAGATAGTTTT [CACACA_negctrl_site1711]	8.83 ± 0.44
